# Experimental data as given in publication PMC6687534.
# Chains of the proteins cited; added tags and fusions are not shown.
# UniProt Q13761: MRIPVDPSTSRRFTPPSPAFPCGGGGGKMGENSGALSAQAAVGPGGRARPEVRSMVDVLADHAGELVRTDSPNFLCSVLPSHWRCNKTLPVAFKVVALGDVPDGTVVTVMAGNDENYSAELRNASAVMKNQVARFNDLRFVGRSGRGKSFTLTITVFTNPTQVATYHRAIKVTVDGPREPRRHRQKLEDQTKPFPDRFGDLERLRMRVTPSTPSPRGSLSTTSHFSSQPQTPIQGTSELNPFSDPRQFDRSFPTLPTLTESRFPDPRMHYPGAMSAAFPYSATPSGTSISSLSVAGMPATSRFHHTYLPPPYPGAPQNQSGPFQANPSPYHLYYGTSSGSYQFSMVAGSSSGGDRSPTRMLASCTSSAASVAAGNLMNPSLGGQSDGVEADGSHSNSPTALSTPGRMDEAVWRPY
# Results are given in words; binding and its absence hold for the method and conditions named. Binding seen in cells or lysates may run through a third protein. Some entries that bind do so weakly or less than the wild type. For part of these data: Where a sequence is shown, tags or fusion partners need not be part of it.
# Legend:
# [1] = molecular target: FLAG-tagged IKZF3 wild-type, transfected in HEK293T (human) (UniProt Q9UKT9); assay: co-IP; anti-FLAG IP from HEK293T cells transfected with FLAG-IKZF1 or FLAG-IKZF3; immunocomplexes treated with Benzonase for 30 min on ice and washed further; immunoblot
# [2] = molecular target: T1, FLAG-tagged IKZF3 Δ1-279 (human) (UniProt Q9UKT9); assay: co-IP; anti-FLAG gel on lysates of transfected HEK293T cells (in part stably expressing IKZF3 or IKZF1); NP-40 buffer, 4 °C overnight; immunoblot; in Fig. 4a-d cells treated with DMSO or increasing amounts (or 1 μM) of the RUNX inhibitor AI-10-104
# T1 sequence: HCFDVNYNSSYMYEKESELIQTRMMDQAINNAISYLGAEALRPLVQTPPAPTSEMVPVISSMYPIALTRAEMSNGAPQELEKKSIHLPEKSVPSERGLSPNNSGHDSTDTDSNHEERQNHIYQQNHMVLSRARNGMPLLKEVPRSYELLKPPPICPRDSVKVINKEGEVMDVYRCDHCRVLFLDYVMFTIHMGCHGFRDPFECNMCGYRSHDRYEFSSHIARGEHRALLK
# [3] = molecular target: T2, FLAG-tagged IKZF3 Δ1-243 (human) (UniProt Q9UKT9); assay: as above
# T2 sequence: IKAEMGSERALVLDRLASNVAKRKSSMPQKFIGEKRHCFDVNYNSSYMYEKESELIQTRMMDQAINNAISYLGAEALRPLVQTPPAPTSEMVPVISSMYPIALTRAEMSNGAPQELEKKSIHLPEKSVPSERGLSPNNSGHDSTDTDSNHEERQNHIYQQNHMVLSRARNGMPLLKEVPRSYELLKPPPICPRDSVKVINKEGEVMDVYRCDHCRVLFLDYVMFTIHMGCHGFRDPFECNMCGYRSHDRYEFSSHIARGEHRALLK
# [4] = molecular target: FLAG-tagged IKZF3 Δ480-509 (human) (UniProt Q9UKT9); assay: as above
# [5] = molecular target: T3, FLAG-tagged IKZF3 Δ1-181 (human) (UniProt Q9UKT9); assay: as above
# T3 sequence: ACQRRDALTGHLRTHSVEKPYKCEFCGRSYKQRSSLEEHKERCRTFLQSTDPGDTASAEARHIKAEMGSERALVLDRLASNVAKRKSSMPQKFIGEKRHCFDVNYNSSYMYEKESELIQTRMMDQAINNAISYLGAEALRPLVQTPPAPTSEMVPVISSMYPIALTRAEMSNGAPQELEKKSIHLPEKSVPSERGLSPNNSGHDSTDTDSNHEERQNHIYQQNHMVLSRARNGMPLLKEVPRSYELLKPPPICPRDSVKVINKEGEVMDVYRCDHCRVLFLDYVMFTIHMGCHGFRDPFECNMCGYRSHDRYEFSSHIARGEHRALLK
# [6] = molecular target: FLAG-tagged IKZF3 wild-type, transfected in HEK293T (human) (UniProt Q9UKT9); assay: as above
# [7] = molecular target: FLAG-tagged IKZF3 Δ420-509 (human) (UniProt Q9UKT9); assay: as above
# [8] = molecular target: FLAG-tagged human IKZF3, stably expressed in myeloma cells (human) (UniProt Q9UKT9); assay: co-IP; anti-FLAG resin on extracts of ARP-1 and OPM-1 cells stably expressing FLAG-IKZF1 or FLAG-IKZF3; NP-40 buffer (0.1% NP-40, 15 mM Tris-HCl pH 7.4, 1 mM EDTA, 150 mM NaCl, 1 mM MgCl2, 10% glycerol), 4 °C overnight; immunoblot
# [9] = molecular target: GST-IKZF3, purified recombinant (human) (UniProt Q9UKT9); assay: pull-down; purified GST-tagged proteins incubated with in vitro translated FLAG-tagged proteins at 4 °C overnight; Glutathione Sepharose 4B; probed with anti-FLAG antibodies; only the target purified
# [10] = molecular target: FLAG-tagged RUNX3, transfected in HEK293T (UniProt Q13761); assay: co-IP; anti-FLAG gel on lysates of transfected HEK293T cells (in part stably expressing IKZF3 or IKZF1); NP-40 buffer, 4 °C overnight; immunoblot; in Fig. 4a-d cells treated with DMSO or increasing amounts (or 1 μM) of the RUNX inhibitor AI-10-104
# [11] = molecular target: FLAG-tagged RUNX1 wild-type, transfected in HEK293T (UniProt Q01196); assay: as above
substance,measurement,setting,value
RUNX1 found in HEK293T cell extracts (from UniProt Q01196 1-453),binding,[1],binds
same,binding,[2],no binding
same,binding,[3],no binding
same,binding,[4],binds
same,binding,[5],no binding
same,binding,[6],binds
same,binding,[7],binds
endogenous RUNX3 of myeloma cells (from UniProt Q13761 1-415),binding,[8],binds
endogenous RUNX1 of myeloma cells (from UniProt Q01196 1-453),binding,[8],binds
"in vitro translated FLAG-tagged RUNX1, full-length (from UniProt Q01196 1-453)",binding,[9],binds
IKZF3 stably expressed in HEK293T cells (from UniProt Q9UKT9 1-509),binding,[10],binds
same,binding,[11],binds
